The values that follow come from the supplement of paper PMC11417369.

± gives the standard deviation of the averaged measurements. The list shows a part of the results.

The subject of this experiment is PfAP2-G AP2 domain (GST-tagged). Kind of experiment: gcPBM binding intensity (ln(normalized median fluorescence intensity)); higher = stronger DNA binding. The gist of the method:
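For binding intensity, the highest Masliner-normalised natural-log median intensity across replicate spots of either probe orientation was taken. Protein bound to the array was stained with Alexa488 anti-GST antibody and scanned at 488 nm. The protein, GST-tagged P. falciparum DNA-binding domains from E. coli at about 25 μg on average, had been applied for 1 h to an Agilent 4 × 180k array of primer-extended double-stranded 36-bp intergenic genomic probes and negative controls.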
“TTTTTTTTAATTGTGATACGTATATTATTTAATGAT [CACACA_negctrl_site38]”: the “gcPBM binding intensity (ln)” value is 10.5 ± 0.42.

With “AAAGAAAATAACAAAATTTTGAAAACATCACATTCG [CACACA_negctrl_site89]”, the “gcPBM binding intensity (ln)” value came to 9.965 ± 0.049.

Turning to “AAATTAAAGGCATAAAAGAAAATATTTAATAAAAAA [CACACA_negctrl_site1689]”, the “gcPBM binding intensity (ln)” value came to 9.65 ± 0.23.

As for “GAACATTTGAAATATGCACACATGTATAAACCTACA [CACACA_site2654]”, the “gcPBM binding intensity (ln)” value turned out to be 10.2 ± 0.092.

Regarding “TAAAAATAAAGAAAATGTACATAAATAATAATACAT [XGTACX_site2278]”, the “gcPBM binding intensity (ln)” value amounted to 11.2 ± 0.69.

As to “TATTTCATCTTATTTTAGGAAAAACTAATATATAAG [CACACA_negctrl_site1823]”, the “gcPBM binding intensity (ln)” value stood at 9.86 ± 0.2.

For the sequence “TATTCGTCTTTTTTCTCACACACCCTTTTTATTAAA [CACACA_site2508]”, the “gcPBM binding intensity (ln)” value turned out to be 10.2 ± 0.18.

As to “AAATTTAGGAACATTATATATATATATATATATATA [CACACA_negctrl_site862]”, the “gcPBM binding intensity (ln)” value came out at 9.98 ± 0.52.

For the sequence “CAAAAAAAGGAAAAGATACACACCGTAAATTAAAAT [CACACA_site3612]”, the “gcPBM binding intensity (ln)” value stood at 9.88 ± 0.11.

For “AACAAACAAACAAATATACACACTTTTGTATAAAGT [CACACA_site3509]”, the “gcPBM binding intensity (ln)” value was 9.915 ± 0.078.

Consider “ATTATACATTTTAGATGTACATATTTTAAATTTAAT [XGTACX_site5174]”, for which the “gcPBM binding intensity (ln)” value is 11.4 ± 0.83.

Take “ATATTTTGTATAATCACACACACTATTCTTAAATAG [CACACA_site7270]”: the “gcPBM binding intensity (ln)” value turned out to be 10.1 ± 0.16.

Consider “AGAAATTAATCGAAGTGTACATATAAACATACATAT [XGTACX_site5518]”, for which the “gcPBM binding intensity (ln)” value came to 11.3 ± 0.69.

On to “TACATATATATATACACACATACATATATATACGCA [CACACA_site792]”, for which the “gcPBM binding intensity (ln)” value is 9.95 ± 0.13.

Consider “AACCTCGTGTAATATGCATGTTCCCTTCAAAGTTTT [TGCATGCA_site459]”, for which the “gcPBM binding intensity (ln)” value came to 9.96 ± 0.099.

As for “CCCACATAAAAAAATAAACACACATATGTATATATA [CACACA_site9040]”, the “gcPBM binding intensity (ln)” value came out at 9.86 ± 0.16.

Regarding “AAATGGGCTTATTTATGTACTTAAATATATCTACCC [XGTACX_site3823]”, the “gcPBM binding intensity (ln)” value stood at 11.4 ± 0.86.

Consider “TAATCAATTCAATATTGTACGATATTTACCTTTAAA [XGTACX_site4678]”, for which the “gcPBM binding intensity (ln)” value came out at 11 ± 0.62.

For the sequence “AAAAAAATCTATATTACACACATATATACCTATATA [CACACA_site7464]”, the “gcPBM binding intensity (ln)” value was determined as 9.86.

As for “TATTTATGTTATAATTGTACAATAAACAAATTTTTT [XGTACX_site5306]”, the “gcPBM binding intensity (ln)” value was found to be 10.9 ± 0.53.

Turning to “TACATTGTATACATATGTACACATATATATATATAT [XGTACX_site6174]”, the “gcPBM binding intensity (ln)” value is 11.5 ± 0.71.

On to “ATAGGTGAATACTAATATAAATTCAAGAGGGAAAAG [CACACA_negctrl_site720]”, for which the “gcPBM binding intensity (ln)” value came to 9.79 ± 0.13.

For the sequence “TTTACATTAAATCACGCACACAAAAAAAAAAAAAAA [CACACA_site2418]”, the “gcPBM binding intensity (ln)” value is 10.2 ± 0.67.

Turning to “GAAATGTATAAATCCATACACACATAAATTTTAATA [CACACA_site2364]”, the “gcPBM binding intensity (ln)” value was determined as 9.865 ± 0.021.

Take “TAAATATAAAAATGCACACACACAAAAAAAAAAAAA [CACACA_site895]”: the “gcPBM binding intensity (ln)” value was 9.91 ± 0.55.

As to “TATATATATATAATGTGTACATACTAAATAGAGGAC [XGTACX_site4153]”, the “gcPBM binding intensity (ln)” value was 11.7 ± 1.1.

Turning to “ATCTATGGAGCTTATACACACTTTTATATTTTAACA [CACACA_site5994]”, the “gcPBM binding intensity (ln)” value was found to be 10.05 ± 0.057.

Turning to “TTTGAATTTTTATATACACACATTATTATATTATAT [CACACA_site1593]”, the “gcPBM binding intensity (ln)” value was 9.975 ± 0.078.

“TATTTATTTGTGGGGTGTACGAAATTTTTTTTTTTT [XGTACX_site5091]”: the “gcPBM binding intensity (ln)” value is 11.2 ± 0.69.

Regarding “TTTCTTTTTAAAGTGTATTAAAATTGAATAAAAAGA [XGTACX_negctrl_site408]”, the “gcPBM binding intensity (ln)” value stood at 10.1 ± 0.34.

As for “TATTAATATTTACACACATGCGCACACATAAATAAA [TGCATGCA_site609]”, the “gcPBM binding intensity (ln)” value worked out at 10.7 ± 0.45.

“ATTAAATGATTCATATGTACATAAATAAATAAATAT [XGTACX_site2249]”: the “gcPBM binding intensity (ln)” value came to 11.2 ± 0.67.

For the sequence “GTACAGATATTGTACATACACACCTATATAAATATC [CACACA_site5739]”, the “gcPBM binding intensity (ln)” value was found to be 11.2 ± 0.81.

For “TAAATCCGCAGGCACACACACATATTAAGAAAAAAA [CACACA_site6061]”, the “gcPBM binding intensity (ln)” value worked out at 10.1 ± 0.31.

Take “ATGAAAAAACATAATTGTACAAAAGTTGGATTCGAT [XGTACX_site7732]”: the “gcPBM binding intensity (ln)” value was 10.9 ± 0.39.

As to “ATCATCACATAAGAAAATAGATAAAAAAAAAAAAAT [XGTACX_negctrl_site589]”, the “gcPBM binding intensity (ln)” value came out at 9.66 ± 0.12.

For the sequence “TTTTTTTTTTTTGTCACACACCTTCATAAGAAAAAA [CACACA_site4779]”, the “gcPBM binding intensity (ln)” value came out at 10.2 ± 0.4.

On to “TGGGAACAATATATTTGTACTTAAATAAATAAAAAA [XGTACX_site6762]”, for which the “gcPBM binding intensity (ln)” value was 11.1 ± 0.64.

Regarding “GAACAAAATGATAGAAGTACAAATATTTATTTTGTT [XGTACX_site7146]”, the “gcPBM binding intensity (ln)” value was found to be 11.2 ± 0.67.

Regarding “TATATTTATAAGTGTACACATTATATAAATCCCTAT [CACACA_site6122]”, the “gcPBM binding intensity (ln)” value worked out at 11.7 ± 1.1.

For “AAAGAGAAACAAAATTGTACATTATATTGTAGACGT [XGTACX_site976]”, the “gcPBM binding intensity (ln)” value amounted to 10.8 ± 0.35.

In the case of “TATACAGACAGACACACACACATATATAAATATGTA [CACACA_site6912]”, the “gcPBM binding intensity (ln)” value came to 10.2 ± 0.37.

For “ATTATTATTTTTAACTGTACATAGATATAGATATCC [XGTACX_site8714]”, the “gcPBM binding intensity (ln)” value stood at 10.8 ± 0.54.

Consider TACAATATTTCGAGCTTGCACTTTTATTAAGTAAAT, for which the “gcPBM binding intensity (ln)” value is 10.06 ± 0.085.
